# Measurements published in the supplement of paper PMC8728848.
# The list shows a part of the results.
# B1: Cp ZmpB (Clostridium perfringens), Q0TR08 (protein)
# chain: MNKRKIAAIILATMITNLSATTIDVLAQELNTKNNSKVEVSHDDESHQARVSKFDLYNSDKLDAYNQEFQVSRSNIKSINNNGGKYNSSTIDKAIDGNLETHWETGKPNDANFTNEVVVTFNEITNIDRIVYSARRDSARGKGFAKEFEIYASLKDEGDDFNLVSSGEYTESTRDLVEIKFNPTDFKRLKFKFKKADQNWASAAEFMFYKEDKLNEKFNGLFTDSSMNKVSEEFNTLEKLNAFENELKDHPIYDLYKEGLNNARAILTETSENPTKATLGQITYNLNDDYNNQYRMPYKNIKAIKNNGRHYAAQNIEKAIDNDVNTYWETGTLNSSSFNNEVEVEFNDLVTLDRIVYGSRQSDLKGFAEEVYIYASRTSKGDTYKLVATGAHEATKGLVEAKFEPTEFKRVKFKFKKSKQNSATLNELMFYKPDEVYSSIPKLFTDGTMSELSEEFNSLEKINAFKEKAKNHPLYNDFNETIELAESLISNPRKEDVLELEMRGDSISEAKKRKVWNFQDWQITGLSARAGDKITVYVDVAEGDPTPTLLYKQSLTQHGGATSFQLKPGKNEITIPEINYESNGIPKDVIQGGDLFFTNYKSDSQKRAPKVRIEGASKYPVFILGKSDENEVMKELEAYVEKIKAEPKTTPNIFAVSSNKSLEFVQATYALDWYKKNNKTPKYTAEQWDQYIADAMGFWGFDNSKDVNSDFNFRIMPMVKNLSGGAFMNAGNGVIGIRPGNQDAILAANKGWGVAHELGHNFDTGGRTIVEVTNNMMPLFFESKYKTKTRITDQNIWENNTYPKVGLDDYSNNELYNKADSTHLAQLAPLWQLYLYDNTFYGKFERQFRERDFGNKNREDIYKSWVVAASDAMELDLTEFFARHGIRVDDKVKEDLAKYPKPDKKIYYLNDLAMNYKGDGFTENAKVSVSTSGSNGNIKLSFSVDDENKDNILGYEIRRDGKYVGFTSNDSFVDTKSNLDEDGVYVVTPYDRKLNTLNPIEVNALQPTLSVNPVITLALGEEFNEEEYIVAKDIKGNSLSESVKVKSSNVNTSKVGEYEVLYSLEDSKGNEYTKTSKVNVVSRKEYMSDLTPKQSSNGWGTVRKDKSISGGVIGLTRDGDFVDYNKGLGLHSNAEYVYDLEGKDYDYFESYVGVDKAMSSRPASSVIFKVLVDGEEKFNSGVMRSTTPQKYVKVDVKNAKELKLIVNDAGDGDSSDHASFGDAKLATLSSKPIIKGENLAYSMDEKVDLMKGITATDIEDGNITSKVQIKSSDFVEGKSGIFTVVYSVTDSDGLTSECSRTIAVTDKETQLSDLNWKSATIGSGSVRKDRAVSGNQIRLLNEDNSVETFAKGIGTHSYSEIVYNSEGYDIFDTWVGIDRHVADKKVSSVKFKVYVDGELKAETDVMRIDTPKKRLVVDVRNSKEIKLVVDVADNGNNWDHADWADAKFRNLAEYDASELNKAIEEAKKLDLNNYTEESSEALKNAISKGEEALLSKDKETINSALEELNKEMNSLVKVDLNAVINIPDKYLLKSIQNQLNKTGDITLGDMYSLTTLTLSGVEDLTGLENAKNLETLNMDYNEVKDLRPLSKLKKLNTLNAQEQFIAAGELKPSNGKVIGDSKVYNREGKNVAKTIRVVDKNGNTILEQDAKDEFTINTKDLSSGLYGVHVLFEDEGFSGVMFYLFNV
# Columns and labels:
# Experiment in all cases: glycan array binding signal (z-score within array); higher = stronger binding
# Details in all cases: glycan notation: IUPAC condensed, linker removed
# Gal(a1-3)Gal(b1-4)GlcNAc = molecular target: Gal(a1-3)Gal(b1-4)GlcNAc
# In short: (§1)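 Glycan array data were curated from 3228 arrays in the Consortium for Functional Glycomics database and kept only where the protein sequence was available. Glycan names were converted to IUPAC-condensed notation, and columns mapping to the same glycan were averaged. The binding signal is a within-array Z-score, averaged across arrays of the same protein sequence at different concentrations or buffers and across linkers. Negative Z-scores can be read as non-binding.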
# [1] = molecular target: Gal(a1-3)Gal(b1-4)GlcNAc(b1-2)Man
# In short: as §1
# [2] = molecular target: Gal(a1-3)Gal(b1-4)GlcNAc(b1-2)Man(a1-3)[Gal(a1-3)Gal(b1-4)GlcNAc(b1-2)Man(a1-6)]Man(b1-4)GlcNAc(b1-4)GlcNAc
# In short: as §1
# [3] = molecular target: Gal(a1-3)Gal(b1-4)GlcNAc(b1-3)GalNAc
# In short: as §1
# [4] = molecular target: Gal(a1-3)Gal(b1-4)GlcNAc(b1-6)GalNAc
# In short: as §1
# [5] = molecular target: Gal(a1-3)Gal(b1-4)[Fuc(a1-3)]GlcNAc
# In short: as §1
# [6] = molecular target: Gal(a1-3)Gal(b1-4)[Fuc(a1-3)]GlcNAc(b1-2)Man(a1-3)[Gal(a1-3)Gal(b1-4)[Fuc(a1-3)]GlcNAc(b1-2)Man(a1-6)]Man(b1-4)GlcNAc(b1-4)GlcNAc
# In short: as §1
# Gal(a1-3)GalNAc = molecular target: Gal(a1-3)GalNAc
# In short: as §1
# [7] = molecular target: Gal(a1-3)[Gal(a1-4)]Gal(b1-4)GlcNAc
# In short: as §1
# [8] = molecular target: Gal(a1-4)Gal(b1-3)GlcNAc(b1-2)Man(a1-3)[Gal(a1-4)Gal(b1-3)GlcNAc(b1-2)Man(a1-6)]Man(b1-4)GlcNAc(b1-4)GlcNAc
# In short: as §1
# Gal(a1-4)Gal(b1-4)Glc = molecular target: Gal(a1-4)Gal(b1-4)Glc
# In short: as §1
# Gal(a1-4)Gal(b1-4)GlcNAc = molecular target: Gal(a1-4)Gal(b1-4)GlcNAc
# In short: as §1
# [9] = molecular target: Gal(a1-4)Gal(b1-4)GlcNAc(b1-2)Man(a1-3)[Gal(a1-4)Gal(b1-4)GlcNAc(b1-2)Man(a1-6)]Man(b1-4)GlcNAc(b1-4)GlcNAc
# In short: as §1
# [10] = molecular target: Gal(a1-4)Gal(b1-4)GlcNAc(b1-3)Gal(b1-4)Glc
# In short: as §1
# Gal(a1-4)GlcNAc = molecular target: Gal(a1-4)GlcNAc
# In short: as §1
# Gal(a1-6)Glc = molecular target: Gal(a1-6)Glc
# In short: as §1
# Gal(b1-2)Gal = molecular target: Gal(b1-2)Gal
# In short: as §1
# Gal(b1-3)Gal = molecular target: Gal(b1-3)Gal
# In short: as §1
# Gal(b1-3)Gal(b1-4)GlcNAc = molecular target: Gal(b1-3)Gal(b1-4)GlcNAc
# In short: as §1
# Gal(b1-3)GalNAc = molecular target: Gal(b1-3)GalNAc
# In short: as §1
# [11] = molecular target: Gal(b1-3)GalNAc(a1-3)[Fuc(a1-2)]Gal(b1-4)Glc
# In short: as §1
# [12] = molecular target: Gal(b1-3)GalNAc(a1-3)[Fuc(a1-2)]Gal(b1-4)GlcNAc
# In short: as §1
# Gal(b1-3)GalNAc(b1-3)Gal = molecular target: Gal(b1-3)GalNAc(b1-3)Gal
# In short: as §1
# [13] = molecular target: Gal(b1-3)GalNAc(b1-3)Gal(a1-4)Gal(b1-4)Glc
# In short: as §1
# [14] = molecular target: Gal(b1-3)GalNAc(b1-4)Gal(b1-4)Glc
# In short: as §1
# [15] = molecular target: Gal(b1-3)GalNAc(b1-4)[Neu5Ac(a2-3)]Gal(b1-4)Glc
# In short: as §1
# Gal(b1-3)GlcNAc = molecular target: Gal(b1-3)GlcNAc
# In short: as §1
# [16] = molecular target: Gal(b1-3)GlcNAc(a1-3)Gal(b1-4)GlcNAc
# In short: as §1
# [17] = molecular target: Gal(b1-3)GlcNAc(a1-6)Gal(b1-4)GlcNAc
# In short: as §1
# Gal(b1-3)GlcNAc(b1-2)Man = molecular target: Gal(b1-3)GlcNAc(b1-2)Man
# In short: as §1
# [18] = molecular target: Gal(b1-3)GlcNAc(b1-2)Man(a1-3)[Gal(b1-3)GlcNAc(b1-2)Man(a1-6)]Man(b1-4)GlcNAc(b1-4)GlcNAc
# In short: as §1
# [19] = molecular target: Gal(b1-3)GlcNAc(b1-2)Man(a1-3)[Gal(b1-3)GlcNAc(b1-2)Man(a1-6)]Man(b1-4)GlcNAc(b1-4)[Fuc(a1-6)]GlcNAc
# In short: as §1
# [20] = molecular target: Gal(b1-3)GlcNAc(b1-2)Man(a1-3)[GlcNAc(b1-4)][Gal(b1-3)GlcNAc(b1-2)Man(a1-6)]Man(b1-4)GlcNAc(b1-4)GlcNAc
# In short: as §1
# [21] = molecular target: Gal(b1-3)GlcNAc(b1-2)[Gal(b1-3)GlcNAc(b1-6)]Man(a1-6)[Gal(b1-3)GlcNAc(b1-2)Man(a1-3)]Man(b1-4)GlcNAc(b1-4)GlcNAc
# In short: as §1
# [22] = molecular target: Gal(b1-3)GlcNAc(b1-3)Gal(b1-3)GlcNAc
# In short: as §1
# [23] = molecular target: Gal(b1-3)GlcNAc(b1-3)Gal(b1-4)Glc
# In short: as §1
# [24] = molecular target: Gal(b1-3)GlcNAc(b1-3)Gal(b1-4)GlcNAc
# In short: as §1
# [25] = molecular target: Gal(b1-3)GlcNAc(b1-3)Gal(b1-4)GlcNAc(b1-2)Man(a1-3)[Gal(b1-3)GlcNAc(b1-3)Gal(b1-4)GlcNAc(b1-2)Man(a1-6)]Man(b1-4)GlcNAc(b1-4)GlcNAc
# In short: as §1
# [26] = molecular target: Gal(b1-3)GlcNAc(b1-3)Gal(b1-4)GlcNAc(b1-2)[Gal(b1-3)GlcNAc(b1-3)Gal(b1-4)GlcNAc(b1-6)]Man(a1-6)[Gal(b1-3)GlcNAc(b1-3)Gal(b1-4)GlcNAc(b1-2)Man(a1-3)]Man(b1-4)GlcNAc(b1-4)[Fuc(a1-6)]GlcNAc
# In short: as §1
# [27] = molecular target: Gal(b1-3)GlcNAc(b1-3)Gal(b1-4)GlcNAc(b1-3)Gal(b1-4)GlcNAc(b1-2)[Gal(b1-3)GlcNAc(b1-3)Gal(b1-4)GlcNAc(b1-3)Gal(b1-4)GlcNAc(b1-6)]Man(a1-6)[Gal(b1-3)GlcNAc(b1-3)Gal(b1-4)GlcNAc(b1-3)Gal(b1-4)GlcNAc(b1-2)Man(a1-3)]Man(b1-4)GlcNAc(b1-4)[Fuc(a1-6)]GlcNAc
# In short: as §1
# [28] = molecular target: Gal(b1-3)GlcNAc(b1-3)Gal(b1-4)GlcNAc(b1-6)[Gal(b1-3)GlcNAc(b1-3)]Gal(b1-4)Glc
# In short: as §1
# [29] = molecular target: Gal(b1-3)GlcNAc(b1-3)Gal(b1-4)[Fuc(a1-3)]GlcNAc
# In short: as §1
# [30] = molecular target: Gal(b1-3)GlcNAc(b1-3)Gal(b1-4)[Fuc(a1-3)]GlcNAc(b1-6)[Gal(b1-3)GlcNAc(b1-3)]Gal(b1-4)Glc
# In short: as §1
# [31] = molecular target: Gal(b1-3)GlcNAc(b1-3)GalNAc
# In short: as §1
# [32] = molecular target: Gal(b1-3)GlcNAc(b1-6)Gal(b1-4)GlcNAc
# In short: as §1
binder,measurement,setting,value
B1,glycan array binding signal (z-score),Gal(a1-3)Gal(b1-4)GlcNAc,-0.193
same,glycan array binding signal (z-score),[1],-0.163
same,glycan array binding signal (z-score),[2],0.108
same,glycan array binding signal (z-score),[3],-0.114
same,glycan array binding signal (z-score),[4],-0.014
same,glycan array binding signal (z-score),[5],0.119
same,glycan array binding signal (z-score),[6],0.555
same,glycan array binding signal (z-score),Gal(a1-3)GalNAc,-0.046
same,glycan array binding signal (z-score),[7],-0.263
same,glycan array binding signal (z-score),[8],-0.252
same,glycan array binding signal (z-score),Gal(a1-4)Gal(b1-4)Glc,-0.209
same,glycan array binding signal (z-score),Gal(a1-4)Gal(b1-4)GlcNAc,-0.181
same,glycan array binding signal (z-score),[9],-0.254
same,glycan array binding signal (z-score),[10],0.228
same,glycan array binding signal (z-score),Gal(a1-4)GlcNAc,0.252
same,glycan array binding signal (z-score),Gal(a1-6)Glc,-0.02
same,glycan array binding signal (z-score),Gal(b1-2)Gal,0.053
same,glycan array binding signal (z-score),Gal(b1-3)Gal,0.414
same,glycan array binding signal (z-score),Gal(b1-3)Gal(b1-4)GlcNAc,0.081
same,glycan array binding signal (z-score),Gal(b1-3)GalNAc,0.205
same,glycan array binding signal (z-score),[11],0.587
same,glycan array binding signal (z-score),[12],-0.189
same,glycan array binding signal (z-score),Gal(b1-3)GalNAc(b1-3)Gal,0.366
same,glycan array binding signal (z-score),[13],-0.28
same,glycan array binding signal (z-score),[14],-0.231
same,glycan array binding signal (z-score),[15],0.078
same,glycan array binding signal (z-score),Gal(b1-3)GlcNAc,0.462
same,glycan array binding signal (z-score),[16],-0.422
same,glycan array binding signal (z-score),[17],0.114
same,glycan array binding signal (z-score),Gal(b1-3)GlcNAc(b1-2)Man,-0.099
same,glycan array binding signal (z-score),[18],-0.119
same,glycan array binding signal (z-score),[19],-0.193
same,glycan array binding signal (z-score),[20],-0.137
same,glycan array binding signal (z-score),[21],-0.237
same,glycan array binding signal (z-score),[22],0.693
same,glycan array binding signal (z-score),[23],-0.316
same,glycan array binding signal (z-score),[24],-0.081
same,glycan array binding signal (z-score),[25],-0.399
same,glycan array binding signal (z-score),[26],0.123
same,glycan array binding signal (z-score),[27],0.131
same,glycan array binding signal (z-score),[28],-0.416
same,glycan array binding signal (z-score),[29],-0.401
same,glycan array binding signal (z-score),[30],-0.322
same,glycan array binding signal (z-score),[31],0.148
same,glycan array binding signal (z-score),[32],0.253
